Assay results: the BET-seq Pho4 binding data (Le et al. 2018)
This is one part of the list. The energies were worked out here from pooled read counts, against the library average; single values are noisy.

Target: T1, Pho4 (S. cerevisiae) (UniProt P07270)
T1 sequence: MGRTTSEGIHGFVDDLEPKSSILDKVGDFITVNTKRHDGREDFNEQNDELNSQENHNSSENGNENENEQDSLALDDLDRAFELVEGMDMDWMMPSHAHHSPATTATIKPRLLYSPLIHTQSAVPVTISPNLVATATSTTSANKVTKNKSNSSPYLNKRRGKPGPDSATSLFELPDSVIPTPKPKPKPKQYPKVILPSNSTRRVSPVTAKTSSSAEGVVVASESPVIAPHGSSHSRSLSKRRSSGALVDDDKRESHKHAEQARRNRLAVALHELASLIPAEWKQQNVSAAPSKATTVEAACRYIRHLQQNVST
Experiment: relative binding free energy (BET-seq); higher = weaker binding
Conditions: reference: library average

| Sequence | relative binding free energy |
| --- | --- |
| TCTCGCACGTGAGTGA | 0.28 kcal/mol |
| TTTAACACGTGTCGAT | 0.04 kcal/mol |
| GCGTGCACGTGTGTGA | -0.06 kcal/mol |
| GATAGCACGTGGGTTA | -0.23 kcal/mol |
| GGAGGCACGTGCCGGT | -0.22 kcal/mol |
| GATAACACGTGGTTGA | 0.02 kcal/mol |
| TATCGCACGTGTTGAT | -0.15 kcal/mol |
| CTTATCACGTGGTTGT | 0.12 kcal/mol |
| GGAGACACGTGTAGGG | 0 kcal/mol |
| ATAGCCACGTGTTATG | -0.05 kcal/mol |
| AATGCCACGTGTATGG | -0.02 kcal/mol |
| AGAGTCACGTGAATGT | 0.36 kcal/mol |
| AAATGCACGTGAATTG | 0.18 kcal/mol |
| TCGTACACGTGGGCGT | -0.1 kcal/mol |
| TAAGTCACGTGTGTAT | 0.26 kcal/mol |
| TGTTGCACGTGGAGGC | -0.01 kcal/mol |
| GGTTGCACGTGTGAAT | 0.21 kcal/mol |
| TTTTACACGTGATTCT | 0.1 kcal/mol |
| CTGGTCACGTGTAATT | 0.17 kcal/mol |
| TTTGGCACGTGCTTCA | -0.1 kcal/mol |
| GGCGGCACGTGTTCGA | 0.05 kcal/mol |
| CCTGGCACGTGTTAGG | -0.01 kcal/mol |
| GTCTGCACGTGAAATG | 0.48 kcal/mol |

| Sequence | relative binding free energy |
| --- | --- |
| TAACGCACGTGGGGTA | -0.33 kcal/mol |
| TGGGTCACGTGAGGGA | 0.34 kcal/mol |
| GGAGGCACGTGTATAT | -0.06 kcal/mol |
| AGGGCCACGTGGGCGC | -0.25 kcal/mol |
| GTGACCACGTGGGTGT | -0.15 kcal/mol |
| GTGGGCACGTGGAGCC | -0.03 kcal/mol |
| GGGGACACGTGTCTGA | 0.03 kcal/mol |
| GCTGGCACGTGGTGGG | -0.02 kcal/mol |
| CAGGGCACGTGGATTT | -0.05 kcal/mol |
| GTTGACACGTGGAAAT | 0.28 kcal/mol |
| TGCATCACGTGGACGG | 0.29 kcal/mol |
| GGGTTCACGTGCGCGC | 0.38 kcal/mol |
| GGAGTCACGTGTAATG | 0.2 kcal/mol |
| GTGCGCACGTGGGGAC | -0.3 kcal/mol |
| ATGTTCACGTGATCTG | 0.36 kcal/mol |
| CAATACACGTGTATGG | 0.22 kcal/mol |
| TTTAGCACGTGGTTGT | -0.05 kcal/mol |
| TGTAGCACGTGTTGTG | -0.1 kcal/mol |
| GGGGACACGTGATGAG | 0.11 kcal/mol |
| TTTGACACGTGGCTGT | -0.15 kcal/mol |
| GGTCACACGTGATGTA | 0.29 kcal/mol |
| AGTGGCACGTGAATGC | 0.16 kcal/mol |
| AGGGCCACGTGTGTAT | -0.05 kcal/mol |

| Sequence | relative binding free energy |
| --- | --- |
| GTCGGCACGTGTCATT | 0.13 kcal/mol |
| CTGTGCACGTGCGGAG | -0.19 kcal/mol |
| CTTCTCACGTGAGGGG | 0.34 kcal/mol |
| ACAGGCACGTGTTGAG | -0.03 kcal/mol |
| CAGGTCACGTGGATTT | 0.28 kcal/mol |
| AGCTTCACGTGAGGGT | 0.29 kcal/mol |
| CGTTGCACGTGGTGGC | -0.17 kcal/mol |
| AGAAGCACGTGGTGTT | -0.27 kcal/mol |
| GATTGCACGTGAGGCT | 0.13 kcal/mol |
| AAAGGCACGTGTGGTC | -0.15 kcal/mol |
| GAGGGCACGTGTGAGC | 0.03 kcal/mol |
| ATTGGCACGTGGCACG | -0.21 kcal/mol |
| CGTTGCACGTGAAGTT | 0.21 kcal/mol |
| AAGTTCACGTGAAGAG | 0.44 kcal/mol |
| ACATTCACGTGGGGGT | 0.14 kcal/mol |
| TAGATCACGTGGGGGG | 0.12 kcal/mol |
| CTTTACACGTGTTTGA | 0.06 kcal/mol |
| ATTGGCACGTGCGTGA | -0.27 kcal/mol |
| TGATGCACGTGTTACG | 0.01 kcal/mol |
| AGAGACACGTGGGAGT | 0.01 kcal/mol |
| GATGGCACGTGAGTGA | 0.28 kcal/mol |
| TTTAACACGTGGTCAG | -0.12 kcal/mol |
| GTTTACACGTGTGTAA | 0.05 kcal/mol |

| Sequence | relative binding free energy |
| --- | --- |
| CTGTTCACGTGGGGAC | 0.08 kcal/mol |
| ATATTCACGTGTGTAT | 0.33 kcal/mol |
| CTGTACACGTGTCATG | 0.24 kcal/mol |
| AAGTGCACGTGTTTAA | -0.04 kcal/mol |
| TTTATCACGTGGGTTC | -0.01 kcal/mol |
| TTTACCACGTGATGAT | 0.07 kcal/mol |
| TGCAGCACGTGACGGT | 0.09 kcal/mol |
| CCTGGCACGTGGTGGT | -0.25 kcal/mol |
| GTTAACACGTGGAGTT | 0.02 kcal/mol |
| ATCTGCACGTGGGTGG | -0.1 kcal/mol |
| ATTGTCACGTGTGTCG | 0.14 kcal/mol |
| ATGTTCACGTGAATGA | 0.47 kcal/mol |
| CTTAACACGTGAGGGG | 0.17 kcal/mol |
| AGCATCACGTGGAAGG | 0.21 kcal/mol |
| TTAAACACGTGGTCTT | -0.08 kcal/mol |
| GGAATCACGTGTGGAG | 0.21 kcal/mol |
| TTCTGCACGTGCGGGG | -0.06 kcal/mol |
| GACGGCACGTGTCGGT | 0.03 kcal/mol |
| TTTTTCACGTGTAGGC | 0.27 kcal/mol |
| ACGTGCACGTGTTTTT | 0.01 kcal/mol |
| AGGGTCACGTGTGCAA | 0.11 kcal/mol |
| GATGGCACGTGAGTGC | 0.33 kcal/mol |
| CTTCGCACGTGATGGT | -0.01 kcal/mol |

| Sequence | relative binding free energy |
| --- | --- |
| TTGGGCACGTGTGCGC | -0.1 kcal/mol |
| TTGGCCACGTGATGGA | 0.08 kcal/mol |
| TGAATCACGTGAAATG | 0.38 kcal/mol |
| GATAGCACGTGGGTTG | -0.03 kcal/mol |
| CGATTCACGTGTTTTG | 0.36 kcal/mol |
| GGATGCACGTGGATCG | 0.04 kcal/mol |
| AGGGGCACGTGCACGT | -0.23 kcal/mol |
| AGTGTCACGTGGAGCT | -0.01 kcal/mol |
| TGTGTCACGTGTCTTA | 0.1 kcal/mol |
| ACTGTCACGTGTTATT | 0.18 kcal/mol |
| GGATGCACGTGATGGG | 0.2 kcal/mol |
| TGACCCACGTGGGGTG | -0.3 kcal/mol |
| AGCAGCACGTGGTTGT | -0.18 kcal/mol |
| GGCTTCACGTGTTTGA | 0.18 kcal/mol |
| TTATACACGTGATAGA | 0.15 kcal/mol |
| CGGTGCACGTGGGGAG | -0.14 kcal/mol |
| TGGGGCACGTGGCAAG | -0.2 kcal/mol |
| GTGTACACGTGGTTTA | 0.06 kcal/mol |
| TGGTGCACGTGTCGGA | 0.11 kcal/mol |
| TAAGTCACGTGAGTTG | 0.32 kcal/mol |
| TTTAGCACGTGCGATA | -0.08 kcal/mol |
| GTGATCACGTGCAGTG | 0.14 kcal/mol |
| AGGATCACGTGAAGAG | 0.33 kcal/mol |
